Results from patent US20240207407A1 (WALTER AND ELIZA HALL INSTITUTE OF MEDICAL RESEARCH, published 2024).

B1: GCT01 scFv (scFv)
scFv: QSVLTQPPSVSVSPGQTASITCSGDKLGDKYACWYQQKPGQSPVLVIYQDSKRPSGIPERFSGSNSGNTATLTISGTQAMDEADYYCQAWDSDGKATVVFGTGTKVTVSSQTGGSGGGGSGGGGSGGGGS[letters of about 100 residues left out]EQWEGDYFSAFDIWGQGTMVTVSS
modifications: biotinylated (AviTag fusion) in the bead, SPR and flow cytometry assays
notes: It was produced as a His6- and AviTag-fusion; also called clone 70
B2: GCT02 scFv (scFv)
scFv: NFMLTQPHSVSESPGKTVTISCTRSSGSIASNYVQWYQQRPGSAPTTVIYEDNQRPSGVPDRFSGSIDSSSNSASLTISGLKTEDEADYYCQSYDLAADVRVVFGTGTKVTVSSQTGGSGGGGSGGGGSGGGGS[letters of about 100 residues left out]GGENTFESHPVAFDIWGQGTMVTVSS
modifications: biotinylated (AviTag fusion) in the bead, SPR and flow cytometry assays
notes: It was produced as a His6- and AviTag-fusion; also called clone 205

Target: T1, Recombinant soluble EGFRvIII protein (extracellular domain, ACRO Biosystems Cat EGI-H52H4) (human, UniProt P00533 partial chain, labelled with ATTO 488 NHS ester in the bead assay; unlabelled in SPR)
T1 construct: Bought protein consisting of the extracellular domains, without the transmembrane or internal domains; also called recombinant EGFRvIII; EGFRvIII-ATTO488
Assay: SPR (ProteOn XPR36), biotinylated scFv captured on streptavidin chip, soluble EGFRvIII ECD injected, 1:1 Langmuir kinetic fit
Description: Recombinant EGFR Cat EGR-H5222 Lot: R102-616S1-A3 and EGFRvIII (protein Cat EGI-H52H4 Lot: 2144-65RS1-BG was obtained from Acrobiosystems and reconstituted to 1 ug/ul in PBS before dilution into PBS-T and injection over test and control surfaces at the concentrations indicated, (flow rate 30 μl/min). GFP protein was injected over chips to serve as negative control for non-specific scFv binding. A 10 mM glycine HCl buffer (pH 3) used to strip injected protein from chip between injections. Results from at least two independent injections were analyzed. After subtraction of data from control cells, interactions analyzed with ProteOn Manager software (version 2.1). KD values were derived from kinetic fit analysis using 1:1 Langmuir binding model.
Surface plasmon resonance (SPR) experiments were performed using a ProteOn XPR36 instrument (Bio-Rad) to determine the binding characteristics of GCT01 and GCT02 to EGFRvIII. Biotinylated GCT01, GCT02 and GFP scFv chains (200-400 RU) were captured onto separate streptavidin-coupled sensorchips. A separate flow cell containing immobilized streptavidin without coupled scFv served as control channel.
Both GCT01 and GCT02 scFv clones bound specifically to recombinant EGFRvIII protein over EGFR (wild type) recombinant protein as determined by Surface plasmon resonance (SPR). GFP protein was used as a negative control. […]

Row | Kd [pM] | Binder
1 | 45.7 | B1
2 | 327 | B2
